Results from a compilation of properties of binary mixtures (doi:10.1016/j.molliq.2017.12.017).
Some of these densities may be calculated back from excess volumes.

Experiment: xn = mol fraction of the nth substance listed
Conditions: 101 kPa

COCCO + CC[n+]1ccn(C)c1.O=S(=O)([O-])C(F)(F)F
x2 = 0
Conditions | mass density [kg/m3]
298.15 K | 960.5
308.15 K | 951.3
313.15 K | 946.6
318.15 K | 941.9

CC[n+]1ccn(C)c1.O=S(=O)([O-])C(F)(F)F + COCCO
mass density [kg/m3]
Conditions | 298.15 K | 303.15 K | 308.15 K | 313.15 K | 318.15 K
x1 = 0.0531 | 1008.9 | – | 999.9 | 995.3 | 990.8
x1 = 0.1062 | 1050.2 | 1045.7 | 1041.2 | – | 1032.2
x1 = 0.1999 | – | 1106 | 1101.6 | 1097.2 | –
x1 = 0.2935 | 1164.2 | 1159.9 | – | 1151.2 | 1146.9
x1 = 0.3958 | 1215.9 | 1211.6 | 1207.4 | 1203.1 | –
x1 = 0.4452 | – | 1234 | 1229.7 | 1225.5 | 1221.2
x1 = 0.5036 | 1262.3 | 1258.1 | 1253.8 | 1249.6 | 1245.4
x1 = 0.5752 | 1288.4 | 1284.2 | 1280 | 1275.8 | –
x1 = 0.6452 | – | 1306.3 | 1302.1 | 1297.9 | 1293.7
x1 = 0.7142 | 1328.7 | 1324.5 | 1320.4 | 1316.2 | 1312
x1 = 0.8049 | – | 1343.4 | 1339.2 | – | 1330.9
x1 = 0.8751 | 1361.1 | 1356.9 | 1352.7 | 1348.5 | 1344.4
x1 = 0.9522 | – | 1370.2 | 1366.1 | 1361.8 | –
x1 = 1 | 1382.8 | – | 1374.4 | 1370.2 | 1366.1
